Data as given in PubChem BioAssay AID588342 (National Center for Advancing Translational Sciences (NCATS), 2011).
Screen size: about 360,000 compounds; about 25,000 (6.9%) were called active. The inconclusive results got no clear call from the source; some entries with a clear call stand among them for comparison. Calls come from the whole dose curve; as a rule, active = well fitted inhibition curve with a large enough effect; inconclusive = small, poorly fitted or top-dose-only effect; inactive = flat fitted curve, though single readings scatter. Where the call is inconclusive, the potency comes from a doubtful curve fit.

What follows are compounds tested against Luciferin 4-monooxygenase (Photinus pyralis) (UniProt P08659) (assay: qHTS profiling assay for firefly luciferase inhibitor/activator using purifed enzyme and Km concentrations of substrates (counterscreen for miR-21 project)). Conditions: purified FLuc, luminescence inhibition; series mostly up to 57.5 µM.
In short: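 Biochemical qHTS of compounds, final roughly 60 µM downward over six points, against 10 nM purified firefly luciferase using Km concentrations of substrates (10 uM D-luciferin, 10 uM ATP) in Tris acetate pH 7.5 buffer; luminescence output.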
Note: nearly all actives have a fitted effect of over 55% in size.
Potency is the fitted concentration of half-maximal effect; tags give direction and shape of the fitted curve.

Sequence of UniProt P08659 (P08659 whole entry, looked up): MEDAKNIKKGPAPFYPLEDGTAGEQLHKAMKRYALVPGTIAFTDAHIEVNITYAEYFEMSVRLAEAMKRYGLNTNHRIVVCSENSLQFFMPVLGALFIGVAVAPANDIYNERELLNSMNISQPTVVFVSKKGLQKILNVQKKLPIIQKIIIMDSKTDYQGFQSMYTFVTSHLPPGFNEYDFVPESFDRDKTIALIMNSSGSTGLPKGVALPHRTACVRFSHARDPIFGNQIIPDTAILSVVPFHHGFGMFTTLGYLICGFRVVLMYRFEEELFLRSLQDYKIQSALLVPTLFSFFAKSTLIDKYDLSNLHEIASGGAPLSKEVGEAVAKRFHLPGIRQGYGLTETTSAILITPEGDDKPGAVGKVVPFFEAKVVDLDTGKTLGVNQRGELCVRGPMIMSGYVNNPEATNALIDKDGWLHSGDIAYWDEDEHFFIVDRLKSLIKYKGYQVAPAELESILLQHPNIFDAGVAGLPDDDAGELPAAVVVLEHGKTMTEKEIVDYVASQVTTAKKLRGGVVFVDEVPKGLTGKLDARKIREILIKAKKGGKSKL

Compound	Potency
CCC(Sc1nc2ccccc2o1)C(=O)Nc1nnc(C)s1 (stereo unspecified)	inconclusive: 6.01 µM [inhibitor, partial curve, poor fit]
CCc1ccc(C(=O)CSc2ncn[nH]2)cc1	active: 16.9 µM
Cc1nnc(SCC(=O)c2ccc(Cl)cc2)s1	inconclusive: 37.9 µM [inhibitor, single point]
CC1CC1C(=O)Nc1nc(-c2ccc(Cl)s2)cs1 (stereo unspecified)	inconclusive: 19 µM [inhibitor, partial curve, poor fit]
Cc1ccc(C2C(C(=O)c3cc4ccccc4o3)=C(O)C(=O)N2CCN2CCOCC2)o1 (stereo unspecified)	inactive
CC1CCCC(C)N1C(=O)COC(=O)c1cccc(S(=O)(=O)N(C)c2ccccc2)c1 (stereo unspecified)	inconclusive: 30.1 µM [inhibitor, partial curve, poor fit]
O=S(=O)(c1ccccc1)C(/C=N\O)/C=C/c1ccccc1 (stereo unspecified)	inconclusive: 21.3 µM [inhibitor, partial curve, poor fit]
CCOC(=O)C1CCCN(C(=O)c2cc(-c3ccc(C)cc3)nc3ccccc23)C1 (stereo unspecified)	active: 4.78 µM
Cc1cc2nc(C3CCCN(C(=S)Nc4ccccc4C)C3)[nH]c2cc1C (stereo unspecified)	active: 3.38 µM
COc1cc(/C=C/C(=O)Nc2ccc(C(C)=O)cc2)cc(OC)c1OC	inconclusive: 37.9 µM [inhibitor, partial curve, poor fit]
COc1ccc(C(=O)O/N=C(\N)Cc2ccc(Cl)cc2)cc1OC	inactive
CCC(=O)N1N=C(c2ccc(OC)cc2)CC1c1cn(-c2ccccc2)nc1-c1cccs1 (stereo unspecified)	inactive
CCOc1cc(N2CCOCC2)c(OCC)cc1NC(=O)c1nn(CC)c(=O)c2ccccc12	inactive
COc1ccc(C(=O)N/N=C/c2ccc3cccc(O)c3n2)cc1	inconclusive: 8.49 µM [inhibitor, partial curve]
Cc1nc(-c2cccc(NC(=O)C3CCCCC3)c2)cs1	inconclusive: 26.9 µM [inhibitor, single point]
Cc1cccc(CSc2cn(CC(=O)N3CCCCC3)c3ccccc23)c1	inconclusive: 12 µM [inhibitor, partial curve]
Cc1ccc(Cl)cc1NC(=O)COC(=O)CC(C)(C)C	inactive
Cc1noc(C)c1COC(=O)c1ccc2ccccc2n1	inactive
Cc1ccc2nc(Cl)c(C3CC(c4cccs4)=NN3S(C)(=O)=O)cc2c1 (stereo unspecified)	inconclusive: 26.9 µM [inhibitor, partial curve, poor fit]
O=C(Cn1cc(SCc2cccc(F)c2)c2ccccc21)N1CCOCC1	inconclusive: 26.9 µM [inhibitor, partial curve, poor fit]
COc1ccc(/C=N/NC(=O)COc2cccc3cccnc23)cc1OC	inconclusive: 37.9 µM [inhibitor, single point]
CCCC(=O)OC1=CN(Cc2ccccc2)S(=O)(=O)c2ccccc21	inactive
COc1ccc2oc(-c3ccc(C)c(NC(=O)c4cccnc4)c3)nc2c1	inconclusive: 1.51 µM [inhibitor, partial curve, poor fit]

Compound	Potency
CCC(C)NC(=O)c1csc2c1CCCCC2 (stereo unspecified)	inactive
CNC(=O)c1ccc2c(c1)N=C(C)c1cc(C)ccc1S2	inconclusive: 37.9 µM [inhibitor, partial curve, poor fit]
O=C(N/N=C/c1cccnc1)c1ccccc1NS(=O)(=O)c1cccs1	inconclusive: 21.3 µM [inhibitor, partial curve, poor fit]
CCN1CCN(c2ncnc3c2cnn3-c2ccccc2)CC1	active: 23.9 µM
CNC(=O)/C(C#N)=C/c1ccc(-c2ccc(OC)cc2[N+](=O)[O-])o1	inconclusive: 8.49 µM [inhibitor, partial curve, poor fit]
O=C(Nc1cc(C(F)(F)F)ccc1Cl)c1cccnc1	inactive
CCOc1ccc(C2c3c(oc4ccc(C)cc4c3=O)C(=O)N2Cc2ccc3c(c2)OCO3)cc1OC (stereo unspecified)	inactive
Cc1ccc(OCCn2cc(/C=C(\C#N)C(=O)NCC3CCCO3)c3ccccc32)cc1 (stereo unspecified)	inconclusive: 21.3 µM [inhibitor, partial curve, poor fit]
O=C(Nc1nnc(SCc2ccccc2F)s1)c1ccco1	inconclusive: 30.1 µM [inhibitor, partial curve, poor fit]
O=C1CC(c2nc3ccccc3n2CCCOc2ccccc2)CN1c1ccc(F)cc1 (stereo unspecified)	inactive
CC1(c2ccccc2)CC(C)(C)N2C(=O)Cc3cccc1c32 (stereo unspecified)	inconclusive: 23.9 µM [inhibitor, partial curve, poor fit]
Cc1ccc(/C=N/NC(=O)c2ccc3c(c2)OCCO3)s1	active: 3.38 µM
O=C(/C=C/c1cccc(Cl)c1)NCCCN1CCOCC1	inactive
CC(C)(C)C(=O)N1CCN(c2nc3ccc(Br)cc3s2)CC1	inconclusive: 7.57 µM [inhibitor, full curve]
CCOc1c(Cl)cc(C(=O)Nc2ccccc2C(=O)O)cc1Cl	active: 19 µM
Clc1ccc(N/N=C/c2ccncc2)cc1Cl	inconclusive: 13.5 µM [inhibitor, partial curve]
O=C(Nc1sc(-c2ccccc2)cc1C(=O)O)c1ccccc1	inconclusive: 9.53 µM [inhibitor, partial curve, poor fit]
CSc1nc2sc3c(c2c(=O)n1-c1ccccc1C)CCCC3	inconclusive: 37.9 µM [inhibitor, partial curve, poor fit]
COc1ccc(/C=C/C(=O)NCC(=O)N/N=C(/C)c2ccco2)cc1	inconclusive: 23.9 µM [inhibitor, partial curve]
Cc1ccc(/C=N/n2c(C3CCCCC3)n[nH]c2=S)cc1	inactive
O=S(=O)(Nc1nc2ccccc2nc1Nc1ccc2c(c1)OCO2)c1ccccc1	inconclusive: 16.9 µM [inhibitor, partial curve, poor fit]
Cc1cccc(N2C(=O)CSC23C(=O)N(Cc2cccc(C(F)(F)F)c2)c2ccccc23)c1 (stereo unspecified)	inactive
C/C(=N\N=C1\NC(=O)C(CC(=O)Nc2ccc(Cl)cc2)S1)c1ccco1 (stereo unspecified)	inconclusive: 9.53 µM [inhibitor, partial curve]
